Measured values taken from a compilation of properties of binary mixtures (doi:10.1016/j.jct.2008.09.003).
The densities may have been worked out from excess volumes.

Assay: xn = mol fraction of the nth substance listed
Settings: 101 kPa

CCCC[n+]1ccn(C)c1.F[P-](F)(F)(F)(F)F + CN1CCCC1=O
mass density [kg/m3]
Settings	x2 = 0.1062	x2 = 0.2152	x2 = 0.3116	x2 = 0.4127	x2 = 0.5149	x2 = 0.6131	x2 = 0.7116	x2 = 0.809	x2 = 0.9047
298.15 K	1351.1	1332.3	1312.9	1289.4	–	1230.8	1193.8	1149.7	–
303.15 K	1348.5	1329.7	1310.3	1286.7	1259.1	–	–	1146.5	1092.6
308.15 K	1343.5	1324.9	1305.5	1281.9	1254.3	1223.2	1186.1	–	1087.7
313.15 K	–	1321	–	–	1250.5	1219.3	–	1137.6	1083.5
